In PubChem BioAssay (NCI):
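Protocol summary: plate cells (96-well), add compound at 5 concentrations, incubate 48 h, interpolate endpoints linearly. GI50 marks 50% less growth.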 Certain results were filed several times, with different values. They are shown here; other results are not. There may be further records. For some of these results: A record mostly stands for its own series of concentrations, not given here; some values may only mark the edge of a range. What stands in brackets tells the records apart. The letters are not those of the source and start again with each entry. For some of these results: Values given together are repeats in other runs, samples, wells, individuals or studies.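 The concentration for full growth arrest is given as TGI.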

What was measured:
Assay in all cases: NCI tumour cell line growth inhibition, 48 h
786-0 renal = tested on: 786-0 renal
A549 NSCLC = tested on: A549 NSCLC
ACHN renal = tested on: ACHN renal
BT-549 breast = tested on: BT-549 breast
CAKI-1 renal = tested on: CAKI-1 renal
CCRF-CEM leukemia = tested on: CCRF-CEM leukemia
COLO 205 colon = tested on: COLO 205 colon
DU-145 prostate = tested on: DU-145 prostate
EKVX NSCLC = tested on: EKVX NSCLC
HCC-2998 colon = tested on: HCC-2998 colon
HCT-116 colon = tested on: HCT-116 colon
HCT-15 colon = tested on: HCT-15 colon
HOP-62 NSCLC = tested on: HOP-62 NSCLC
HOP-92 NSCLC = tested on: HOP-92 NSCLC
HS 578T breast = tested on: HS 578T breast
HT29 colon = tested on: HT29 colon
IGROV1 ovarian = tested on: IGROV1 ovarian
K-562 leukemia = tested on: K-562 leukemia
KM12 colon = tested on: KM12 colon
LOX IMVI melanoma = tested on: LOX IMVI melanoma
M14 melanoma = tested on: M14 melanoma
MALME-3M melanoma = tested on: MALME-3M melanoma
MCF7 breast = tested on: MCF7 breast
MDA-MB-231 breast = tested on: MDA-MB-231 breast
MDA-MB-435 = tested on: MDA-MB-435
MDA-N = tested on: MDA-N
MOLT-4 leukemia = tested on: MOLT-4 leukemia

Nc1ncnc2c(C3OC(CO)C(O)C3O)nsc12 (centres undefined) was tested. Which GI50 (786-0 renal) did it give?
The GI50 was 23.7 nM [sample A, 1 test] and < 12 nM [sample A, mean of 2 tests] and 8.4 µM [sample B, mean of 2 tests].

What about the GI50 (A549 NSCLC) of the same compound?
The GI50 was 43.5 nM [sample A, 1 test] and < 19.2 nM [sample A, mean of 2 tests] and 24.1 µM [sample B, mean of 2 tests].

And the TGI (A549 NSCLC)?
Its TGI is 440 nM [sample A, 1 test] and 3.38 µM [sample A, mean of 2 tests] and > 100 µM [sample B, mean of 2 tests].

And the GI50 (ACHN renal)?
Its GI50 is 19.6 nM [sample A, 1 test] and 7.52 µM [sample B, mean of 2 tests].

And the TGI (ACHN renal)?
Its TGI is 98.2 nM [sample A, 1 test] and > 100 µM [sample B, mean of 2 tests].

What about the GI50 (BT-549 breast) of the same compound?
Its GI50 is < 10.5 nM [sample A, mean of 2 tests] and 8.9 µM [sample B, 1 test].

What about the TGI (BT-549 breast) of the same compound?
Its TGI is 1.08 µM [sample A, mean of 2 tests] and > 100 µM [sample B, 1 test].

And the GI50 (CAKI-1 renal)?
Its GI50 is 9.9 nM [sample A, 1 test] and 4.02 µM [sample B, mean of 2 tests].

What about the TGI (CAKI-1 renal) of the same compound?
Its TGI is 181 nM, 26.1 nM [sample A, 1 test] and 34.7 µM [sample B, mean of 2 tests].

And the GI50 (CCRF-CEM leukemia)?
The GI50 was 21.6 nM [sample A, 1 test] and 26.5 µM [sample B, 1 test].

And the GI50 (COLO 205 colon)?
Its GI50 is 35.1 nM [sample A, 1 test] and 9.54 µM [sample B, mean of 2 tests].

What about the TGI (COLO 205 colon) of the same compound?
The TGI was 177 nM [sample A, 1 test] and > 55.2 µM [sample B, mean of 2 tests].

What about the GI50 (DU-145 prostate) of the same compound?
The GI50 was 23.7 nM, 14.4 nM [sample A, 1 test] and 11.5 µM [sample B, mean of 2 tests].

And the TGI (DU-145 prostate)?
The TGI was 265 nM, 2.32 µM [sample A, 1 test] and > 100 µM [sample B, mean of 2 tests].

And the GI50 (EKVX NSCLC)?
Its GI50 is 101 nM [sample A, 1 test] and 44.3 nM [sample A, mean of 2 tests] and 29 µM [sample B, mean of 2 tests].

And the TGI (EKVX NSCLC)?
The TGI was 598 nM [sample A, 1 test] and 1.6 µM [sample A, mean of 2 tests] and > 87.8 µM [sample B, mean of 2 tests].

What about the GI50 (HCC-2998 colon) of the same compound?
The GI50 was 25.3 nM [sample A, 1 test] and 15.6 µM [sample B, mean of 2 tests].

What about the TGI (HCC-2998 colon) of the same compound?
Its TGI is 157 nM [sample A, mean of 2 tests] and > 91.7 µM [sample B, mean of 2 tests].

And the GI50 (HCT-116 colon)?
Its GI50 is 27.3 nM [sample A, 1 test] and 10.1 nM [sample A, mean of 2 tests] and 7.25 µM [sample B, mean of 2 tests].

What about the TGI (HCT-116 colon) of the same compound?
The TGI was 405 nM [sample A, 1 test] and 135 nM [sample A, mean of 2 tests] and > 100 µM [sample B, mean of 2 tests].

What about the GI50 (HCT-15 colon) of the same compound?
Its GI50 is 13.7 nM [sample A, 1 test] and 4.9 µM [sample B, mean of 2 tests].

And the TGI (HCT-15 colon)?
Its TGI is 933 nM [sample A, mean of 2 tests] and > 86.9 µM [sample B, mean of 2 tests].

What about the GI50 (HOP-62 NSCLC) of the same compound?
The GI50 was 36.5 nM [sample A, 1 test] and < 20.2 nM [sample A, mean of 2 tests] and 18.9 µM [sample B, mean of 2 tests].

And the TGI (HOP-62 NSCLC)?
The TGI was 645 nM [sample A, 1 test] and > 33 µM [sample A, mean of 2 tests] and > 100 µM [sample B, mean of 2 tests].

And the GI50 (HOP-92 NSCLC)?
Its GI50 is 49.3 nM [sample A, 1 test] and < 12 nM [sample A, mean of 2 tests] and 8.12 µM [sample B, mean of 2 tests].

And the TGI (HOP-92 NSCLC)?
The TGI was 834 nM [sample A, mean of 2 tests] and 75.2 µM [sample B, mean of 2 tests].

What about the GI50 (HS 578T breast) of the same compound?
The GI50 was 48.7 nM [sample A, 1 test] and 32.2 nM [sample A, mean of 2 tests] and 37.9 µM [sample B, mean of 2 tests].

What about the TGI (HS 578T breast) of the same compound?
The TGI was 623 nM [sample A, 1 test] and 628 nM [sample A, mean of 2 tests] and > 100 µM [sample B, mean of 2 tests].

What about the GI50 (HT29 colon) of the same compound?
Its GI50 is 36.1 nM [sample A, 1 test] and 10.9 µM [sample B, mean of 2 tests].

What about the GI50 (IGROV1 ovarian) of the same compound?
The GI50 was 19.5 nM [sample A, 1 test] and < 12.1 nM [sample A, mean of 2 tests] and 7.92 µM [sample B, mean of 2 tests].

What about the TGI (IGROV1 ovarian) of the same compound?
Its TGI is 114 nM [sample A, 1 test] and 2.28 µM [sample A, mean of 2 tests] and > 94.4 µM [sample B, mean of 2 tests].

What about the GI50 (K-562 leukemia) of the same compound?
The GI50 was 4.46 nM [sample A, 1 test] and 3.82 µM [sample B, mean of 2 tests].

What about the TGI (K-562 leukemia) of the same compound?
Its TGI is 20.5 nM [sample A, 1 test] and 1.09 µM [sample A, mean of 2 tests] and > 26.3 µM [sample B, mean of 2 tests].

And the GI50 (KM12 colon)?
Its GI50 is 34.9 nM [sample A, 1 test] and < 16.6 nM [sample A, mean of 2 tests] and 16.6 µM [sample B, mean of 2 tests].

And the TGI (KM12 colon)?
The TGI was 691 nM [sample A, 1 test] and > 100 µM [sample B, mean of 2 tests].

And the GI50 (LOX IMVI melanoma)?
Its GI50 is 4.09 nM [sample A, 1 test] and 3.44 µM [sample B, mean of 2 tests].

What about the TGI (LOX IMVI melanoma) of the same compound?
Its TGI is 54.3 nM, 400 nM [sample A, 1 test] and 23 µM [sample B, mean of 2 tests].

And the GI50 (M14 melanoma)?
The GI50 was 10.4 nM [sample A, 1 test] and 3.38 µM [sample B, mean of 2 tests].

And the GI50 (MALME-3M melanoma)?
The GI50 was 124 nM [sample A, 1 test] and 33.8 nM [sample A, mean of 2 tests] and 39.3 µM [sample B, mean of 2 tests].

What about the TGI (MALME-3M melanoma) of the same compound?
The TGI was 481 nM [sample A, mean of 2 tests] and > 100 µM [sample B, mean of 2 tests].

What about the GI50 (MCF7 breast) of the same compound?
The GI50 was 38.9 nM [sample A, 1 test] and < 12.9 nM [sample A, mean of 2 tests] and 14.2 µM [sample B, mean of 2 tests].

And the GI50 (MDA-MB-231 breast)?
Its GI50 is 19.4 nM [sample A, 1 test] and < 11 nM [sample A, mean of 2 tests] and 7.17 µM [sample B, mean of 2 tests].

What about the TGI (MDA-MB-231 breast) of the same compound?
The TGI was 210 nM [sample A, 1 test] and > 36.3 µM [sample A, mean of 2 tests] and 78.5 µM [sample B, mean of 2 tests].

And the GI50 (MDA-MB-435)?
The GI50 was 27.9 nM [sample A, 1 test] and < 11 nM [sample A, mean of 2 tests] and 8.71 µM [sample B, mean of 2 tests].

What about the TGI (MDA-MB-435) of the same compound?
The TGI was 502 nM [sample A, 1 test] and 38.1 nM [sample A, mean of 2 tests] and > 83.1 µM [sample B, mean of 2 tests].

And the GI50 (MDA-N)?
The GI50 was < 16.3 nM [sample A, mean of 2 tests] and 9.92 µM [sample B, 1 test].

What about the TGI (MDA-N) of the same compound?
Its TGI is 182 nM [sample A, mean of 2 tests] and > 100 µM [sample B, 1 test].

And the GI50 (MOLT-4 leukemia)?
Its GI50 is 25.8 nM [sample A, 1 test] and < 17.3 nM [sample A, mean of 2 tests] and 14.4 µM [sample B, mean of 2 tests].

What about the TGI (MOLT-4 leukemia) of the same compound?
The TGI was 395 nM [sample A, mean of 2 tests] and > 100 µM [sample B, mean of 2 tests].
